From PubChem BioAssay AID743286 (National Center for Advancing Translational Sciences (NCATS), 2014)
Out of some 1,100 compounds screened, about 340 (31%) were called active. Inconclusive means that the source gave no clear call. Such entries were picked first, then a sample of the others. Calls come from the whole dose curve; as a rule, active = well fitted inhibition curve with a large enough effect; inconclusive = small, poorly fitted or top-dose-only effect; inactive = flat fitted curve, though single readings scatter. Potencies of inconclusive entries are doubtful fits and often do not repeat.

Target: Phosphatidylinositol 5-phosphate 4-kinase type-2 alpha (Homo sapiens) (UniProt P48426)
UniProt P48426, sequence (P48426 whole entry, looked up): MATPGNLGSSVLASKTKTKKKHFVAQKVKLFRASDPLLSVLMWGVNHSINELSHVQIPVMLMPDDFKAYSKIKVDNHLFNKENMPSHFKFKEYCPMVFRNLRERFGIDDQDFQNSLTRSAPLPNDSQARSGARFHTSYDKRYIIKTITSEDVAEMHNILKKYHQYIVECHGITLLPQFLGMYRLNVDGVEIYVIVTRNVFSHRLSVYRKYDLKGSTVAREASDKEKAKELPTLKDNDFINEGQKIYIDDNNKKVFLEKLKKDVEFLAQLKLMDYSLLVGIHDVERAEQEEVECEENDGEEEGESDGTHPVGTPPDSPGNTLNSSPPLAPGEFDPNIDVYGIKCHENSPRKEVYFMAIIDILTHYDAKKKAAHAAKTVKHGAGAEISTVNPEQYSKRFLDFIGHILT
Assay: qHTS for Inhibitors of PI5P4K: Confirmation in Primary Assay; note: nearly all actives have a fitted effect of over 65% in size
Settings: PI5P4Kalpha enzyme, ADP-Glo luminescence, 60 min; series mostly up to 76.9 µM
Procedure, shortened: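 ADP-Glo luminescence end-point quantifies ADP from 60-min room-temperature turnover of PI5P by PI5P4Kα. ATP 5 µM final; buffer 0.038 M HEPES pH 7.4, 0.28 mM EGTA, 0.1% CHAPS, 5% DMSO.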
Potency is the fitted concentration of half-maximal effect; tags give direction and shape of the fitted curve.

Row | SMILES | Potency
1 | C[C@H]1CN=C(Nc2ccccc2)N1CCCC1CCCCC1 | inactive
2 | CCc1ccc(CNC(=O)Cc2ccc(NC(=O)C3=C(C)OCCS3)cc2)cc1 | inconclusive: 14.1 µM [inhibitor, partial curve]
3 | COc1ccc(C2=CC3=C(Br)C(=O)C(C)(OC(=O)c4cccs4)C(=O)C3=CO2)cc1 (stereo not drawn) | active: 22.4 µM
4 | NC(=O)c1ccsc1NC(=O)COC(=O)c1nc(Cl)ccc1Cl | inconclusive: 25.1 µM [inhibitor, partial curve]
5 | Cn1cccc1C(=O)OCc1nc2ccccc2c(=O)[nH]1 | inconclusive: 15.8 µM [inhibitor, partial curve]
6 | Cc1ccc(Cn2c(C)nc3c(c2=O)c2nc4ccccc4nc2n3Cc2ccco2)cc1 | inconclusive: 14.1 µM [inhibitor, partial curve]
7 | COc1ccc2oc(C(=O)Nc3ccc(N4CCOCC4)cc3)c(C)c2c1 | inconclusive: 14.1 µM [inhibitor, partial curve]
8 | CCOC(=O)C1CCCN(C(=O)c2ccc(F)c(C)c2)CC1 (stereo not drawn) | inactive
9 | O=c1cc(CN2CCN(S(=O)(=O)c3cccc(Cl)c3)CC2)c2ccc(O)cc2o1 | inconclusive: 22.4 µM [inhibitor, partial curve]
10 | CCN(CC)C(=O)CSc1nc2ccc(NC(=O)CSc3nnc(N)s3)cc2s1 | inconclusive: 14.1 µM [inhibitor, partial curve]
11 | O=C(NCCCCc1ccccc1)c1cccc(NC(=O)C2CC2)c1 | inactive
12 | Nc1nc(Nc2cccc(Cl)c2)nc(NCc2ccco2)c1[N+](=O)[O-] | inconclusive: 20 µM [inhibitor, partial curve]
13 | c1coc(-c2ccc3nncn3c2)c1 | active: 15.8 µM
14 | CCCCC(=O)N(Cc1ccc2c(c1)OCO2)Cc1nc2ccccc2c(=O)[nH]1 | inactive
15 | CC1Cc2ccccc2N1C(=O)CNc1cccc(S(=O)(=O)N2CCCC2)c1 (stereo not drawn) | inactive
16 | COc1ccc(OCC(=O)NCc2nc(-c3ccccc3)no2)cc1 | inconclusive: 35.5 µM [inhibitor, partial curve]
17 | Cc1cccc(NC(=O)CSc2nc3[nH]c(=O)cc(O)c3s2)c1 | inconclusive: 31.6 µM [inhibitor, partial curve]
18 | COc1ccccc1NC(=O)CSc1sc2c(O)cc(=O)[nH]c2c1C#N | active: 10 µM
19 | COC(=O)C1CCN(C(=O)c2cc(-c3ccco3)nc3ccccc23)CC1 | active: 3.98 µM
20 | Cc1cnc(NC(=O)c2sc(Nc3ccccc3)nc2N)o1 | inconclusive: 22.4 µM [inhibitor, partial curve]
21 | Cc1ccc(NC(=O)c2ccc3c(c2)NC(=O)CS3)nc1 | inconclusive: 35.5 µM [inhibitor, single point]
22 | Cc1ccc(-c2csc(N3CCN(c4cc5c(cc4Cl)nc(-c4ccncc4)n5CCN4CCCCC4)CC3)n2)cc1 | inconclusive: 22.4 µM [inhibitor, partial curve]
23 | CCn1c(=S)[nH]c2scc(-c3cccs3)c2c1=O | inconclusive: 22.4 µM [inhibitor, partial curve]
24 | NC(=O)c1ccsc1NC(=O)COC(=O)c1ccccn1 | inconclusive: 35.5 µM [inhibitor, partial curve]
25 | COc1ccccc1CNc1nc(NCCOc2ccccc2)c2sccc2n1 | inconclusive: 44.7 µM [inhibitor, single point]

Row | SMILES | Potency
26 | COc1cccc(NC(=O)CN(C)C(=O)c2cc(-c3ccco3)nc3ccccc23)c1 | active: 15.8 µM
27 | COc1ccccc1CNc1nc(NCc2ccc(C(C)C)cc2)c2sccc2n1 | inconclusive: 28.2 µM [inhibitor, partial curve]
28 | O=C(COc1ccc(Cl)cc1)NC1=NN(c2ccccc2)C(=O)C1 | inconclusive: 28.2 µM [inhibitor, single point]
29 | c1ccc(CNc2nc(NCC3CC3)nc3cc(-c4ccccc4)sc23)cc1 | active: 12.6 µM
30 | Cc1ccc(-c2csc3nc4cc(C(N)=O)ccc4c(=O)n23)cc1 | inconclusive: 15.8 µM [inhibitor, partial curve]
31 | Cc1ccc(CNc2ncnc3ccc(-c4ccc(CO)o4)cc23)o1 | inactive
32 | Cc1cc(C)c(C)c(S(=O)(=O)N[C@@H](C)C(=O)OCc2cc(=O)n3cc(Br)ccc3n2)c1C | inconclusive: 15.8 µM [inhibitor, partial curve]
33 | O=c1oc(-c2ccccc2)nc2sc3c(c12)CCC3 | inconclusive: 12.6 µM [inhibitor, partial curve]
34 | Nc1nc(Nc2ccc(Cl)cc2)nc(NCc2ccco2)c1[N+](=O)[O-] | inconclusive: 39.8 µM [inhibitor, partial curve]
35 | O=C(c1ccco1)N1CCN(c2ncnc3c2[nH]c2ccc(Br)cc23)CC1 | inconclusive: 15.8 µM [inhibitor, partial curve]
36 | Cc1cc2nc(-c3ccco3)c(Cc3cccc(F)c3)n2c(C)c1Br | active: 6.31 µM
37 | O=C(CSc1nc(O)cc(=O)n1-c1ccccc1)Nc1nc2ccccc2s1 | inactive
38 | O=C(c1cc2c(s1)CCC2)N1CCN(c2ccccc2)CC1 | inconclusive: 6.31 µM [inhibitor, full curve]
39 | Cc1cc(NC(=O)CSc2sc3c(O)cc(=O)[nH]c3c2C#N)ccc1Br | active: 8.91 µM
40 | Cc1cc(C(=O)Nc2sccc2C#N)c2ccccc2n1 | inconclusive: 28.2 µM [inhibitor, partial curve]
41 | CC1Cc2ccccc2N1C(=O)COC(=O)CCc1nc2ccccc2c(=O)[nH]1 (stereo not drawn) | inactive
42 | O=C(O)c1ccc2c(=O)[nH]c(CCl)nc2c1 | inconclusive: 12.6 µM [inhibitor, partial curve]
43 | Cn1c(SCC(=O)Nc2ccc3nc(SCC(=O)N4CCCC4)sc3c2)nnc1-c1ccccc1 | inconclusive: 14.1 µM [inhibitor, partial curve]
44 | COc1ccc(C(=O)NCCSc2ccccc2)cc1OC | inactive
45 | CC(=O)c1ccc(NC(=O)CC2Nc3cccc4cccc(c34)NC2=O)cc1 (stereo not drawn) | active: 3.98 µM
46 | COc1ccc(S(=O)(=O)Nc2ccc3c(c2)CCC3)cc1 | inactive
47 | COc1ccccc1Cc1c(-c2ccco2)nc2ccc(Br)cn12 | inconclusive: 25.1 µM [inhibitor, partial curve]
48 | Cc1cnc(C(=O)OCc2nc3ccsc3c(=O)[nH]2)cn1 | inconclusive: 25.1 µM [inhibitor, partial curve]
49 | CCCCn1c(=O)[nH]c(=O)c2c1nc(-c1ccc(-c3ccccc3Br)o1)n2CC | inactive
50 | Cc1c(C(=O)Nc2ccc3c(c2)OCCO3)sc2ncnc(N3CCCCC3C)c12 (stereo not drawn) | inconclusive: 11.2 µM [inhibitor, partial curve]

Row | SMILES | Potency
51 | CC(NC(=O)CN1c2cccc3cccc(c23)S1(=O)=O)c1ccc(S(N)(=O)=O)cc1 (stereo not drawn) | inconclusive: 20 µM [inhibitor, partial curve]
52 | COc1ccc(C2=NOC(C(=O)NCc3ccccn3)C2)cc1OC (stereo not drawn) | inconclusive: 20 µM [inhibitor, partial curve]
53 | Cc1ccc(-c2onc3ccc(C(=O)O)cc23)cc1 | inconclusive: 25.1 µM [inhibitor, single point]
54 | Cc1ccc(CNC(=O)c2ccc(-n3cccc3)cc2)cc1 | active: 12.6 µM
55 | COC(=O)c1c(NC(=O)CN2CCC3(O)CCCCC3C2c2ccc(OC)cc2OC)sc(C)c1C (stereo not drawn) | inconclusive: 28.2 µM [inhibitor, partial curve]
56 | Cc1cccc(Nc2nc(NCc3ccco3)c3ccccc3n2)c1 | active: 35.5 µM
57 | COC(=O)CSc1nc(C)cc(C)n1 | inactive
58 | Cc1cccc(N=c2oc3cc(O)ccc3cc2C(N)=O)c1 | active: 14.1 µM
59 | O=C(O)CCC(=O)N1CCC(n2nnc3cc(C(F)(F)F)ccc32)CC1 | inactive
60 | COc1ccc(Cn2c(C)nc3c(c2=O)c2nc4ccccc4nc2n3Cc2ccco2)cc1 | inconclusive: 17.8 µM [inhibitor, partial curve]
61 | CS(=O)(=O)Nc1ccc(C2=NN(C(=O)c3ccco3)C(c3cccc(F)c3)C2)cc1 (stereo not drawn) | inconclusive: 28.2 µM [inhibitor, partial curve]
62 | CC(C)Cc1nnc(NC(=O)CC(=O)Nc2ccccc2C(=O)O)s1 | inconclusive: 25.1 µM [inhibitor, partial curve]
63 | N#Cc1c(NC(=O)CSc2ncccn2)oc(-c2ccccc2)c1-c1ccccc1 | inconclusive: 15.8 µM [inhibitor, partial curve]
64 | c1ccc(-c2cc3nc(NCC4CC4)nc(NCC4CCCCC4)c3s2)cc1 | active: 20 µM
65 | COc1ccccc1CNc1nc(NC(C)C)nc2cc(-c3ccccc3)sc12 | inconclusive: 28.2 µM [inhibitor, partial curve]
66 | Cc1nc(CS(=O)(=O)c2ccccc2)cc(N2CCOCC2)n1 | inactive
67 | Cc1nc(N)sc1-c1csc(Nc2cccc(C(=O)O)c2)n1 | active: 15.8 µM
68 | COc1ccc(CCNC(=O)C2CC(c3cccc(F)c3)=NO2)cc1 (stereo not drawn) | inactive
69 | Cc1cc(C(=O)OCC(=O)Nc2c(F)cccc2F)c(C)n1-c1ccccc1 | inactive
70 | O=C(c1ccc(-c2ccc([N+](=O)[O-])cc2)o1)N1CCN(S(=O)(=O)c2cccs2)CC1 | inconclusive: 15.8 µM [inhibitor, partial curve]
71 | CC(=O)N1CCN(S(=O)(=O)c2cccc(C(=O)Nc3ccc(F)c(F)c3)c2)CC1 | inactive
72 | O=C(O)c1ccc(-c2nc(-c3ccccc3Cl)cs2)cc1 | inconclusive: 12.6 µM [inhibitor, partial curve]
73 | O=C1NC(c2cc(Cl)cc([N+](=O)[O-])c2O)Nc2ccccc21 (stereo not drawn) | active: 8.91 µM
